Among all 39,000 compounds or so, about 220 (0.56%) showed activity. This is one part of the list.
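Note: static incubation at 37 °C against the wild-type strain, values averaged over two biological replicates.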

The test system of this assay is Escherichia coli K-12 BW25113. Kind of assay: relative growth (OD600 normalised to plate interquartile mean) (fraction); higher = less growth inhibition, active = 0.2 or less. The following applies: 50 µM; LB; incubation time: overnight (16-24 h).
For `CC(C)C#Cc1ccc2c(c1)O[C@H](CN(C)C(=O)c1cccc(F)c1)[C@@H](C)CN([C@H](C)CO)S2(=O)=O`, the relative growth is inactive: 0.974.

As to `Cc1noc(C)c1NC(=O)N(C)C[C@H]1OCCCC[C@H](C)Oc2ccc(NS(=O)(=O)c3cccs3)cc2C(=O)N([C@@H](C)CO)C[C@H]1C`, the relative growth is inactive: 0.998.

Consider `Cc1noc(C)c1NC(=O)N(C)C[C@@H]1Oc2ncc(Br)cc2C(=O)N([C@@H](C)CO)C[C@H]1C`, for which the relative growth is inactive: 0.985.

With `C[C@H]1CN([C@@H](C)CO)C(=O)c2cccc(NC(=O)Nc3cccc4ccccc34)c2O[C@H]1CN(C)Cc1ccc(Oc2ccccc2)cc1`, the relative growth was inactive: 1.02.

On to `O=S(=O)([O-])NC1CCCCC1.[Na+]`, for which the relative growth is inactive: 1.04.

Take `C[C@@H]1CCCCO[C@@H](CN(C)S(=O)(=O)c2ccccc2)[C@@H](C)CN([C@@H](C)CO)C(=O)c2cc(NC(=O)CCC(F)(F)F)ccc2O1`: the relative growth is inactive: 0.828.

Consider `CC(C)c1c(O)ccc2c1CC[C@H]1C(C)(C)CCC[C@]21C`, for which the relative growth was inactive: 0.94.

For the molecule `CO[C@@H]1CN(C)C(=O)c2cc(NS(=O)(=O)CC(F)(F)F)ccc2OC[C@H](C)N(Cc2nccs2)C[C@H]1C`, the relative growth was inactive: 0.962.

Regarding `O=c1[nH][n+](-c2ccccc2)no1`, the relative growth is inactive: 0.978.

Take `O=C(N[C@H](c1ccc(F)cc1)c1ccc2ccccc2n1)C1CCN(Cc2ccc3ccccc3n2)CC1`: the relative growth was inactive: 1.

Take `C[C@H](CO)N1C[C@H](C)[C@H](CN(C)S(=O)(=O)c2cccc(F)c2)Oc2cc(Br)ccc2S1(=O)=O`: the relative growth is inactive: 1.01.

Take `COc1ccc(CN(C)C[C@@H]2OCCCC[C@@H](C)Oc3ccc(NC(=O)Nc4c(C)noc4C)cc3C(=O)N([C@H](C)CO)C[C@H]2C)cc1`: the relative growth was inactive: 1.

`C[C@@H]1CN([C@H](C)CO)C(=O)c2cc(NC(=O)Nc3cccc4ccccc34)ccc2O[C@@H](C)CCCCO[C@H]1CN(C)Cc1ccc(C(=O)O)cc1`: the relative growth was inactive: 1.01.

Regarding `C[C@@H]1CCCCO[C@@H](CN(C)C(=O)Nc2ccccc2)[C@H](C)CN([C@H](C)CO)C(=O)c2cc(NC(=O)Nc3cccc4ccccc34)ccc2O1`, the relative growth is inactive: 1.03.

Take `C[C@H](CO)N1C[C@H](C)[C@H](CN(C)C(=O)c2ccccc2)OCCCC[C@H](C)Oc2ccc(NC(=O)C3CCCCC3)cc2C1=O`: the relative growth is inactive: 1.03.

In the case of `C[C@H]1CCCCO[C@H](CN(C)C(=O)CCCN(C)C)[C@@H](C)CN([C@@H](C)CO)C(=O)c2cc(NS(C)(=O)=O)ccc2O1`, the relative growth was inactive: 0.981.

Regarding `Cn1cc(S(=O)(=O)N2CCN(c3ccc(F)cc3)CC2)c(=O)n(C)c1=O`, the relative growth was inactive: 1.01.

Regarding `C[C@@H]1CCCCO[C@@H](CN(C)C(=O)CCC(F)(F)F)[C@@H](C)CN([C@@H](C)CO)C(=O)c2cc(NS(=O)(=O)c3cccs3)ccc2O1`, the relative growth is inactive: 0.975.

Take `O=C(C[C@@H]1C[C@@H]2c3cc(NC(=O)C4CCOCC4)ccc3O[C@@H]2[C@H](CO)O1)NCc1ccc(Cl)cc1`: the relative growth was inactive: 0.96.

As for `C=CC[C@H](CC(=O)N(CCO)Cc1ccccc1)C(=O)N[C@H](COC(=O)[C@H](CC=C)CC(=O)OC(C)(C)C)Cc1c[nH]c2ccccc12`, the relative growth was inactive: 1.13.

Take `COCC(=O)N1C[C@@H](C)[C@H](OC)CN(C)C(=O)c2ccc(NC(=O)c3ccc(OC)cc3)cc2OC[C@H]1C`: the relative growth is inactive: 1.02.

As to `Cc1noc(C)c1S(=O)(=O)N(C)C[C@H]1Oc2ccc(NS(=O)(=O)c3cn(C)cn3)cc2CC(=O)N([C@@H](C)CO)C[C@H]1C`, the relative growth was inactive: 0.99.

Turning to `C[C@@H]1CN([C@@H](C)CO)C(=O)Cc2cc(NS(=O)(=O)c3ccc(Cl)cc3)ccc2O[C@H]1CN(C)C`, the relative growth is inactive: 0.993.

On to `CC(C)NC(=O)N(C)C[C@@H]1Oc2ccc(NS(=O)(=O)c3ccccc3)cc2CC(=O)N([C@H](C)CO)C[C@H]1C`, for which the relative growth was inactive: 0.983.

For `C[C@H]1CCCCO[C@H](CN(C)C(=O)CCC(F)(F)F)[C@@H](C)CN([C@@H](C)CO)C(=O)c2cc(NS(=O)(=O)c3cccs3)ccc2O1`, the relative growth was inactive: 0.995.

On to `COc1ccc(NC(=O)Nc2ccc3c(c2)C(=O)N([C@H](C)CO)C[C@H](C)[C@@H](CN(C)C(=O)Nc2cccc4ccccc24)O3)cc1`, for which the relative growth was inactive: 0.974.

For the molecule `COc1ccc(CN(C)C[C@H]2OCCCC[C@@H](C)Oc3ccc(NC(=O)NC(C)C)cc3C(=O)N([C@@H](C)CO)C[C@H]2C)cc1`, the relative growth is inactive: 1.02.

Consider `C[C@@H]1CN([C@@H](C)CO)C(=O)c2c(c3ccccc3n2C)-c2ccccc2CO[C@H]1CN(C)S(=O)(=O)c1ccc(Cl)cc1`, for which the relative growth is inactive: 1.07.

With `CC(C)NC(=O)Nc1ccc2c(c1)C(=O)N([C@H](C)CO)C[C@H](C)[C@@H](CN(C)CC1CCCCC1)OCCCC[C@H](C)O2`, the relative growth was inactive: 0.832.

For `C[C@@H]1CN([C@H](C)CO)C(=O)CCCn2nncc2CO[C@@H]1CN(C)C(=O)Nc1ccccc1C(F)(F)F`, the relative growth was inactive: 0.997.

Consider `CC(C)[Si]1(C(C)C)OCc2cc(CCCc3cc4c(c(CCc5ccccc5)n3)[Si](C(C)C)(C(C)C)OC4)nc(CCc3ccccc3)c21`, for which the relative growth is inactive: 1.02.

`COc1ccc(CN(C)C[C@H]2Oc3c(NC(=O)C4CCOCC4)cccc3C(=O)N([C@@H](C)CO)C[C@@H]2C)cc1`: the relative growth was inactive: 0.994.

Regarding `C[C@@H]1CN([C@@H](C)CO)C(=O)c2c(c3ccccc3n2C)-c2ccccc2CO[C@@H]1CN(C)C(=O)Nc1cccc(F)c1`, the relative growth is inactive: 0.983.

Take `CS(=O)(=O)Cc1nc2ccccc2oc1=O`: the relative growth is inactive: 0.964.

With `CNC[C@@H]1Oc2ccc(NC(=O)Cn3cnnn3)cc2C(=O)N([C@@H](C)CO)C[C@@H]1C`, the relative growth was inactive: 0.997.

As for `CC(=O)OCC(CCn1cnc2cnc(N)nc21)COC(C)=O`, the relative growth is inactive: 1.07.

Consider `O=C(/C=C/c1cc2c(cc1Br)OCCO2)c1c(-c2ccccc2)c2cc(Cl)ccc2[nH]c1=O`, for which the relative growth was inactive: 1.03.

With `C[C@@H]1CCCCO[C@@H](CN(C)C(=O)Cc2ccccc2)[C@@H](C)CN([C@@H](C)CO)C(=O)c2cc(NC(=O)Nc3ccc(C(F)(F)F)cc3)ccc2O1`, the relative growth was inactive: 1.01.

`O=C1OCCC=C[C@H]2O[C@@]34C=CCN(c5ccc6ccccc6c5)C(=O)[C@H]3N(CCCCCO)C(=O)[C@@H]4[C@@H]12`: the relative growth was inactive: 0.997.

In the case of `C[C@@H]1CN([C@H](C)CO)C(=O)c2cc(NC(=O)Nc3ccc(C(F)(F)F)cc3)ccc2O[C@@H](C)CCCCO[C@H]1CN(C)C(=O)Nc1ccc(C(F)(F)F)cc1`, the relative growth was inactive: 1.02.

As to `NCCSc1cc(C(F)(F)F)nc2ccccc12`, the relative growth was inactive: 0.938.

Consider `C[C@@H]1CN([C@H](C)CO)C(=O)c2cc(NS(=O)(=O)c3ccc(F)cc3)ccc2O[C@@H]1CN(C)Cc1ccc(-c2ccccc2)cc1`, for which the relative growth is inactive: 1.01.

As to `CC(C)NC(=O)Nc1ccc2c(c1)C(=O)N([C@@H](C)CO)C[C@H](C)[C@@H](CN(C)Cc1ccccc1)OCCCC[C@@H](C)O2`, the relative growth was inactive: 1.02.

For the molecule `Cc1ccc(S(=O)(=O)N(C)C[C@H]2Oc3ccc(NS(C)(=O)=O)cc3C(=O)N([C@@H](C)CO)C[C@H]2C)cc1`, the relative growth was inactive: 0.998.

On to `C[C@H](CO)N1C[C@H](C)[C@H](CN(C)Cc2ccc(C(F)(F)F)cc2)Oc2c(NC(=O)CCCCCC(=O)Nc3ccccc3N)cccc2C1=O`, for which the relative growth was inactive: 0.955.

`COCC#Cc1ccc([C@@H]2[C@@H](CO)N3C(=O)CN(C(=O)c4ccncc4)C[C@@H]23)cc1`: the relative growth is inactive: 1.

Regarding `Cc1cc(C(=O)Nc2cccc3c2O[C@@H](CN(C)Cc2ccc(C(=O)O)cc2)[C@@H](C)CN([C@@H](C)CO)C3=O)n(C)n1`, the relative growth was inactive: 1.04.

As for `Cc1ccc(S(=O)(=O)N(C)C[C@@H]2OCCCC[C@H](C)Oc3ccc(NC(=O)Nc4ccc(F)cc4)cc3C(=O)N([C@@H](C)CO)C[C@@H]2C)cc1`, the relative growth is inactive: 1.02.

As to `C[C@H](CO)N1C[C@H](C)[C@@H](CN(C)C(=O)NC2CCCCC2)Oc2ccc(NC(=O)Nc3cccc4ccccc34)cc2CC1=O`, the relative growth is inactive: 0.935.

With `Cc1noc(C)c1NC(=O)N(C)C[C@@H]1OCCCC[C@H](C)Oc2ccc(NS(=O)(=O)c3ccc(F)cc3)cc2C(=O)N([C@@H](C)CO)C[C@H]1C`, the relative growth is inactive: 0.988.

On to `C[C@@H]1CCCCO[C@@H](CN(C)S(=O)(=O)c2ccccc2)[C@@H](C)CN([C@H](C)CO)C(=O)c2cc(NC(=O)NC3CCCCC3)ccc2O1`, for which the relative growth was inactive: 0.994.

As for `Nc1nc(=O)c2nc(Br)n([C@@H]3O[C@@H]4COP(=O)(O)O[C@H]4[C@H]3O)c2[nH]1`, the relative growth is inactive: 1.03.

`COc1ccc(NC(=O)Nc2ccc3c(c2)C(=O)N([C@@H](C)CO)C[C@@H](C)[C@H](CN(C)Cc2ccncc2)OCCCC[C@@H](C)O3)cc1`: the relative growth is inactive: 1.

Consider `C[C@H](CO)N1C[C@H](C)[C@H](CN(C)S(=O)(=O)c2cccs2)OCCCC[C@H](C)Oc2ccc(NS(=O)(=O)c3ccc(Cl)cc3)cc2C1=O`, for which the relative growth was inactive: 1.03.

For `C[C@H](CO)N1C[C@H](C)[C@H](CN(C)Cc2ccc(Oc3ccccc3)cc2)Oc2ccc(NS(=O)(=O)c3cccs3)cc2C1=O`, the relative growth was inactive: 1.

As for `Nc1nc(=O)c2nc(CNc3ccc(C(=O)NC(CCC(=O)O)C(=O)O)cc3)cnc2[nH]1` (centres undefined), the relative growth is inactive: 0.996.

For `CN(C)CCN1[C@]2(CCN(C(=O)N3CCOCC3)C2)c2ccccc2S1(=O)=O`, the relative growth is inactive: 1.02.

Regarding `C[C@H]1CN([C@@H](C)CO)C(=O)c2cc(-c3ccncc3)cnc2O[C@@H]1CN(C)Cc1ccc(Oc2ccccc2)cc1`, the relative growth was inactive: 1.01.

With `C[C@H](CO)N1C[C@H](C)[C@@H](CN(C)S(=O)(=O)c2cn(C)cn2)Oc2ccc(NC(=O)Nc3ccc(F)cc3)cc2C1=O`, the relative growth was inactive: 1.02.
